In the supplement of paper PMC9446081:
Among all 39,000 compounds or so, about 220 (0.56%) showed activity. This is one part of the list.
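Also: static incubation at 37 °C against the wild-type strain, values averaged over two biological replicates.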

These molecules were tested on Escherichia coli K-12 BW25113 (assay: relative growth (OD600 normalised to plate interquartile mean) (fraction); higher = less growth inhibition, active = 0.2 or less). Details: 50 µM; LB; incubation time: overnight (16-24 h).
For `O=c1nc[nH]c2c1ncn2[C@@H]1C[C@@H](O)[C@H](CO)O1`, the relative growth was inactive: 0.998.
With `C[C@H](CO)N1C[C@H](C)[C@@H](CN(C)Cc2ccccn2)Oc2cc(C#CCN(C)C)ccc2S1(=O)=O` the relative growth was inactive: 0.991.
With `COc1ccc(-c2cnc3c(c2)C(=O)N([C@@H](C)CO)C[C@H](C)[C@H](CN(C)C(=O)Cc2ccncc2)O3)cc1` the relative growth was inactive: 0.988.
With `CN(C)C(=O)C[C@H]1CC[C@H]2[C@@H](COC[C@H](O)CN2S(=O)(=O)c2ccccc2)O1` the relative growth was inactive: 0.997.
In the case of `C[C@H]1CN([C@@H](C)CO)C(=O)Cc2cc(NC(=O)CCC(F)(F)F)ccc2O[C@H]1CN(C)Cc1ccc(Cl)c(Cl)c1`, the relative growth is reported as inactive: 1.01.
`O=C(CN1CCOCC1)N[C@@H]1CC[C@H](CCNC(=O)C2CCC2)O[C@H]1CO` was tested, and the relative growth was inactive: 0.992.
For `COc1ccc(CN(C)C[C@@H]2Oc3ccc(NC(=O)CCN4CCOCC4)cc3CC(=O)N([C@@H](C)CO)C[C@H]2C)cc1`, the relative growth was inactive: 0.988.
`C[C@H]1CCCCO[C@H](CN(C)Cc2ccncc2)[C@@H](C)CN([C@@H](C)CO)C(=O)c2cc(NC(=O)Nc3ccc(F)cc3)ccc2O1` was tested, and the relative growth was inactive: 0.988.
With `Cc1nc(Cn2cnc3c2c(=O)n(C)c(=O)n3C)no1` the relative growth was inactive: 1.01.
For `C[C@H]1CN([C@@H](C)CO)C(=O)c2cc(NC(=O)Nc3cccc4ccccc34)ccc2O[C@H]1CN(C)Cc1ccc2c(c1)OCO2`, the relative growth was inactive: 1.02.
For `CN(C)C(=O)C[C@H]1C=C[C@@H](NC(=O)C2CC2)[C@@H](CO)O1`, the relative growth was inactive: 0.991.
`Clc1ccc(/C=N/Cc2ccc(-c3cccs3)s2)cc1` was tested, and the relative growth was inactive: 0.97.
With `COc1c(-c2ccccc2)oc2cc(O)cc(O)c2c1=O` the relative growth was inactive: 0.998.
For `CC(C)C[C@H](NC(=O)[C@H](CCc1ccccc1)NC(=O)CN1CCOCC1)C(=O)N[C@@H](Cc1ccccc1)C(=O)N[C@@H](CC(C)C)C(=O)[C@@]1(C)CO1`, the relative growth was inactive: 1.13.
With `COCC(=O)Nc1ccc2c(c1)CC(=O)N2` the relative growth was inactive: 0.985.
With `C[C@H](CO)N1C[C@H](C)[C@@H](CN(C)S(=O)(=O)c2cccs2)OCCCC[C@H](C)Oc2ccc(NC(=O)Nc3ccc(C(F)(F)F)cc3)cc2C1=O` the relative growth was inactive: 1.02.
`COc1ccc(C#Cc2ccc3c(c2)[C@]2(C(=O)N3)[C@H](C(=O)N3CCCCCCC3)[C@H]3C(=O)O[C@H](c4ccccc4)[C@H](c4ccccc4)N3[C@@H]2c2ccc(O)cc2)cc1` was tested, and the relative growth was inactive: 1.02.
With `Cc1noc(C)c1NC(=O)N(C)C[C@@H]1Oc2c(NS(=O)(=O)c3cn(C)cn3)cccc2C(=O)N([C@H](C)CO)C[C@H]1C` the relative growth was inactive: 0.986.
With `COc1ccc(NC(=O)Nc2ccc3c(c2)C(=O)N([C@@H](C)CO)C[C@H](C)[C@@H](CN(C)C(=O)Nc2ccc4c(c2)OCO4)OCCCC[C@H](C)O3)cc1` the relative growth was inactive: 1.04.
In the case of `COc1ccc(S(=O)(=O)N(C)C[C@H]2Oc3c(NC(=O)C4CCOCC4)cccc3C(=O)N([C@H](C)CO)C[C@@H]2C)cc1`, the relative growth is reported as inactive: 1.01.
With `C[C@@H]1CN([C@@H](C)CO)C(=O)Cc2cc(NC(=O)Nc3ccc4c(c3)OCO4)ccc2O[C@H]1CN(C)S(C)(=O)=O` the relative growth was inactive: 0.979.
With `C/C(=C\CC[C@@H](C)[C@H]1C[C@@H](O)[C@@]2(C)[C@H]3CC[C@H]4C(C)(C)[C@@H](O[C@@H]5O[C@@H](CO[C@H]6OC[C@@H](O)[C@@H](O)[C@@H]6O)[C@@H](O)[C@@H](O)[C@@H]5O)CC[C@@]45C[C@@]35C[C@@H](O)[C@]12C)C(=O)O[C@H]1O[C@@H](CO)[C@@H](O)[C@@H](O)[C@@H]1O` the relative growth was inactive: 1.04.
`C[C@@H]1CN([C@@H](C)CO)C(=O)Cc2cc(NC(=O)CCC(F)(F)F)ccc2O[C@@H]1CN(C)Cc1ccc(-c2ccccc2)cc1` was tested, and the relative growth was inactive: 0.945.
With `OC[C@H]1CC[C@@H]2O[C@H](CCc3ccc(C#CCc4ccccc4)cc3)[C@@H](n3cc(-c4ccccc4)nn3)C[C@@H]2O1` the relative growth was inactive: 1.02.
In the case of `Nc1ccc(S(=O)(=O)[O-])cc1.Nc1ccc(S(=O)(=O)[O-])cc1.[Zn+2]`, the relative growth is reported as inactive: 1.03.
With `CC(C)NC(=O)N(C)C[C@H]1Oc2ccc(NS(=O)(=O)c3ccc(Cl)cc3)cc2CC(=O)N([C@@H](C)CO)C[C@H]1C` the relative growth was inactive: 0.988.
For `C[C@@H]1CN([C@H](C)CO)C(=O)c2cccc(NC(=O)C3CCOCC3)c2O[C@H]1CN(C)S(=O)(=O)c1cn(C)cn1`, the relative growth was inactive: 0.994.
`Cc1noc(C)c1S(=O)(=O)Nc1cccc2c1O[C@H](CN(C)Cc1ccc(C(=O)O)cc1)[C@H](C)CN([C@@H](C)CO)C2=O` was tested, and the relative growth was inactive: 0.911.
For `COc1ccc(CN(C)C[C@H]2OCCCC[C@H](C)Oc3ccc(NC(=O)Nc4c(C)noc4C)cc3C(=O)N([C@@H](C)CO)C[C@@H]2C)cc1`, the relative growth was inactive: 0.992.
In the case of `Cc1ccccc1S(=O)(=O)N1C[C@@H](O)COC[C@H]2O[C@H](CC(=O)N3CCC(Cc4ccccc4)CC3)CC[C@@H]21`, the relative growth is reported as inactive: 1.02.
`C[C@H]1CN([C@@H](C)CO)C(=O)Cc2cc(NC(=O)C3CC3)ccc2O[C@H]1CN(C)S(=O)(=O)c1cn(C)cn1` was tested, and the relative growth was inactive: 1.02.
With `CCc1c(C)[nH]c2ncnn2c1=O` the relative growth was inactive: 0.965.
With `Cc1ccc(S(=O)(=O)N[C@H]2CC[C@H](CC(=O)N3CCC(Cc4ccccc4)CC3)O[C@@H]2CO)cc1` the relative growth was inactive: 1.03.
`CCCC(=O)Nc1ccc(OCC(O)CNC(C)C)c(C(C)=O)c1.Cl` (configuration not stated) was tested, and the relative growth was inactive: 1.07.
With `COc1ccc(S(=O)(=O)N(C)C[C@H]2Oc3ccc(NS(=O)(=O)c4c(C)noc4C)cc3C(=O)N([C@H](C)CO)C[C@@H]2C)cc1` the relative growth was inactive: 1.
`COc1ccc(S(=O)(=O)Nc2ccc3c(c2)C(=O)N([C@H](C)CO)C[C@@H](C)[C@@H](CN(C)S(=O)(=O)c2cn(C)cn2)OCCCC[C@H](C)O3)cc1` was tested, and the relative growth was inactive: 1.
`C[C@H](CO)N1C[C@H](C)[C@H](CN(C)C(=O)c2ccncc2)OCCCC[C@H](C)Oc2ccc(NC(=O)NC3CCCCC3)cc2C1=O` was tested, and the relative growth was inactive: 1.01.
